Among all 310,000 compounds or so, about 14,000 (4.5%) showed an effect of 50% or more. The effect is printed as a negative number. This is one part of the list.
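Also: peak tail current of the secondary pulse compared with the same well before compound.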

Chain of human ether-à-go-go-related gene (hERG) potassium channel (Q12809 whole entry, looked up): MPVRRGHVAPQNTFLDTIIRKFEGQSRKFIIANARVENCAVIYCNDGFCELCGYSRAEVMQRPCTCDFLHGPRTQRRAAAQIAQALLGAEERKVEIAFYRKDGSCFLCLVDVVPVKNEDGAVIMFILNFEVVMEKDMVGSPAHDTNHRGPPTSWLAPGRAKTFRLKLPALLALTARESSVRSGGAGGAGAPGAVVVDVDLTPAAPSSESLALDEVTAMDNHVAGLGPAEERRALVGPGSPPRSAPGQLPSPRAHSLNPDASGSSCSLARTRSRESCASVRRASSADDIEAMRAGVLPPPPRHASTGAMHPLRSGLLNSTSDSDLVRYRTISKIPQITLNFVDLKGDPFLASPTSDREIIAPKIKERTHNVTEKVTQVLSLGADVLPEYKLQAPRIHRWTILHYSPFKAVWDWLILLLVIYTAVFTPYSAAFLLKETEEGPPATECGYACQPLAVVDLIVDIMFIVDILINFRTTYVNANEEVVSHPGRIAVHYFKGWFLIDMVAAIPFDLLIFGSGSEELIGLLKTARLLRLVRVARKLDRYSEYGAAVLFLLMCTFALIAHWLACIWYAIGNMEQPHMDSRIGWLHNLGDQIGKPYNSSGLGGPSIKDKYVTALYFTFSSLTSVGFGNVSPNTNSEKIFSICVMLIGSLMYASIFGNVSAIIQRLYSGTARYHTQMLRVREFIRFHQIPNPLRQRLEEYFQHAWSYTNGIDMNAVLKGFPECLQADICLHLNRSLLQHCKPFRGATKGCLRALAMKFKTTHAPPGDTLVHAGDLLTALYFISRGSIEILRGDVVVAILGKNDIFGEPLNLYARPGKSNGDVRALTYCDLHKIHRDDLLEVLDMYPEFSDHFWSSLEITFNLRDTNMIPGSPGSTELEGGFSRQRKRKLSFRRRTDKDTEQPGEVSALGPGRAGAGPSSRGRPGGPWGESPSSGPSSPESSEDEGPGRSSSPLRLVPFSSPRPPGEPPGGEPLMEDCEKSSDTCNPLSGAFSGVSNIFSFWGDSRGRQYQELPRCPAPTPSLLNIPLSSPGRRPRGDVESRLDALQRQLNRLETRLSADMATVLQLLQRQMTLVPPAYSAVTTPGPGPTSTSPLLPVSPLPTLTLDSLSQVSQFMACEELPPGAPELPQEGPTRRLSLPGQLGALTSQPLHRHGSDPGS

The assay addresses human ether-à-go-go-related gene (hERG) potassium channel (human, UniProt Q12809). The experiment in a line: primary screen, population patch clamp on CHO cells stably expressing hERG.
With `CCN(CC(=O)NC(C)C)C(=O)[C@H](C)NC(=O)c1ccc(Br)cc1`, the “hERG current change (%, negative = inhibition) at 10uM” value is listed as -2.35%.

Regarding `N/C(Cc1cccc2ccccc12)=N\OC(=O)Cc1cccs1`, the “hERG current change (%, negative = inhibition) at 10uM” value was -9.85%.

`Cc1cc(Nc2cccc([N+](=O)[O-])c2)n2c(nc3ccccc32)c1C#N`: the “hERG current change (%, negative = inhibition) at 10uM” value turned out to be 10.9%.

As for `CCN(CC)S(=O)(=O)c1ccc(/C=C/C(=O)Nc2ccccc2N2CCOCC2)cc1`, the “hERG current change (%, negative = inhibition) at 10uM” value turned out to be 3.87%.

Turning to `O=C(CN1C(=O)C2C3CCC(C3)C2C1=O)Oc1ccc2ccccc2c1` (stereo not shown), the “hERG current change (%, negative = inhibition) at 10uM” value is recorded as 33.3%.

Consider `CCOc1ccc(CCNC(=O)c2cccc(-n3cnnn3)c2)cc1OCC`, for which the “hERG current change (%, negative = inhibition) at 10uM” value is on record as -26.8%.

For `CCCSc1ccc([C@H]2N[C@@](C)(C(=O)OC)[C@H]3C(=O)N(C)C(=O)[C@@H]23)cc1.O=C(O)C(F)(F)F`, the “hERG current change (%, negative = inhibition) at 10uM” value is on record as 4.39%.

As for `CC(C)C(NC(=O)c1ccc2c(c1)OCO2)C(=O)N/N=C\c1ccco1` (stereo not shown), the “hERG current change (%, negative = inhibition) at 10uM” value worked out at 2.3%.

Consider `Cc1ccccc1COc1ccc(/C=C(\C#N)C(N)=O)cc1`, for which the “hERG current change (%, negative = inhibition) at 10uM” value stood at 21.2%.

Turning to `O=S(=O)(NCc1ccccc1)c1ccc(S(=O)(=O)NCC2CCCO2)cc1` (stereo not shown), the “hERG current change (%, negative = inhibition) at 10uM” value is on record as 13.5%.

For `COc1ccc(NC(=O)/C(C#N)=C\c2cc(C)n(-c3ccc(Oc4ccc([N+](=O)[O-])cn4)cc3)c2C)cc1`, the “hERG current change (%, negative = inhibition) at 10uM” value is 10.8%.

On to `O=C(Nc1ccc(F)cc1)C(Cc1ccccc1)n1cccc1` (stereo not shown), for which the “hERG current change (%, negative = inhibition) at 10uM” value is -9.4%.

For `C#CCN(C(=O)c1ccc(OC2CCN(C(=O)CCOC)CC2)cc1)C1CCCCC1`, the “hERG current change (%, negative = inhibition) at 10uM” value was determined as 17.9%.

For the molecule `Cn1cc(C2N3CC4(C)CN2CC(C)(C3)C4=O)c2ccccc21` (stereo not shown), the “hERG current change (%, negative = inhibition) at 10uM” value is on record as 19.8%.

For `Cc1ccccc1-c1noc(C2CCCCC2)n1`, the “hERG current change (%, negative = inhibition) at 10uM” value came to 7.77%.

For `COCCn1c(C)cc(C(=O)COC(=O)c2ccc([N+](=O)[O-])o2)c1C`, the “hERG current change (%, negative = inhibition) at 10uM” value is on record as -26.7%.

In the case of `COC(=O)c1ccc(NC(=S)NCCCN2CCCC2=O)cc1`, the “hERG current change (%, negative = inhibition) at 10uM” value was found to be 3.58%.

Turning to `N#CC1(Nc2ccccc2)C(=O)Nc2ccccc21` (stereo not shown), the “hERG current change (%, negative = inhibition) at 10uM” value is -2.17%.

For `O=C(NCc1ccccc1)OCCN1CCN(Cc2ccccc2)CCC1=O`, the “hERG current change (%, negative = inhibition) at 10uM” value turned out to be 0.631%.

As for `O=C(NCCc1ccc(Cl)cc1)c1cc(-c2ccccn2)nc2ccccc12`, the “hERG current change (%, negative = inhibition) at 10uM” value came out at 20.3%.

As to `Cc1noc(C)c1COc1ccc(C(=O)OCC(=O)Nc2cccc(S(=O)(=O)N3CCOCC3)c2)cc1`, the “hERG current change (%, negative = inhibition) at 10uM” value is 2.47%.

Take `O=C(COC(=O)c1ccccc1F)c1ccc(-n2nncc2-c2ccco2)cc1`: the “hERG current change (%, negative = inhibition) at 10uM” value is reported as 12.9%.

For `COc1ccc(S(=O)(=O)NCCN2CCOCC2)cc1Br`, the “hERG current change (%, negative = inhibition) at 10uM” value is listed as 17.8%.

`Cc1cccc(NC(=O)CSc2nnc(C3CC3)n2CC2CCCO2)c1C` (stereo not shown): the “hERG current change (%, negative = inhibition) at 10uM” value was 6.09%.

For `Fc1cccc(-n2c(-c3ccco3)nc3nc4ccccc4nc32)c1`, the “hERG current change (%, negative = inhibition) at 10uM” value is 7%.

Consider `CCOC(=O)C1=C(c2ccccc2)Nc2ncnn2C1c1ccc(O)cc1` (stereo not shown), for which the “hERG current change (%, negative = inhibition) at 10uM” value was -2.1%.

For the molecule `CC(=C/c1ccccc1)/C=N/NC(=O)c1ccc2nc[nH]c2c1`, the “hERG current change (%, negative = inhibition) at 10uM” value was -3.63%.

For the molecule `O=C(NNC(=O)c1c(O)c2ccccc2[nH]c1=O)c1ccccc1`, the “hERG current change (%, negative = inhibition) at 10uM” value is recorded as 16.6%.

Turning to `COc1ccc(Cn2ccc(=O)c(Cc3c(Cl)cccc3Cl)c2C)cc1`, the “hERG current change (%, negative = inhibition) at 10uM” value was -16.1%.

In the case of `O=C(c1ccc(F)cc1)N1CCCCC(S(=O)(=O)c2ccccc2)C1=O` (stereo not shown), the “hERG current change (%, negative = inhibition) at 10uM” value was found to be 4.45%.

Take `CCOC(=O)N1CCC(Nc2c(-c3ccc(C)cc3)c(=O)c2=O)CC1`: the “hERG current change (%, negative = inhibition) at 10uM” value was -46.7%.

With `S=C1NCN(C2CCCCC2)CN1CCc1ccccc1`, the “hERG current change (%, negative = inhibition) at 10uM” value was found to be 7.31%.

For the molecule `Cc1nn(Cc2cccc(C(N)=O)c2)c(C)c1Br`, the “hERG current change (%, negative = inhibition) at 10uM” value was -5%.

Turning to `Cc1ccc([C@@H]2[C@@H]3C(=O)N(C)C(=O)[C@@H]3[C@]3(C)C(=O)N(Cc4ccccc4)CC(=O)N23)o1`, the “hERG current change (%, negative = inhibition) at 10uM” value was determined as 3.95%.

For the molecule `O=C(NC(O)C(=O)c1cccs1)c1cccnc1` (stereo not shown), the “hERG current change (%, negative = inhibition) at 10uM” value turned out to be 6.82%.

For `O=C(Nc1nnc(C2CC2)s1)c1cc([N+](=O)[O-])ccc1N1CCCCC1`, the “hERG current change (%, negative = inhibition) at 10uM” value is listed as -26.1%.

Consider `Nc1c(/C=C2/C=CC(=O)C(O)=C2)c(=O)nc2sc(CC(=O)N3CCCCC3)nn12`, for which the “hERG current change (%, negative = inhibition) at 10uM” value came out at 8.38%.

`CO/N=C(/CS(=O)(=O)Cc1ccccc1Cl)c1ccc(Cl)cc1Cl`: the “hERG current change (%, negative = inhibition) at 10uM” value turned out to be 4.75%.

Take `Cc1nn(CC(=O)NCc2ccc(OC(C)C)cc2)c(=O)c2cc3occc3n12`: the “hERG current change (%, negative = inhibition) at 10uM” value amounted to 4.68%.

Take `Cc1ccccc1-c1nc(CS(=O)(=O)CC(=O)NCCN2CCOCC2)c(C)o1`: the “hERG current change (%, negative = inhibition) at 10uM” value is recorded as -1.17%.

Regarding `CCOC(=O)c1ccc(-n2c(CN3CCOCC3)nc3ccc([N+](=O)[O-])cc3c2=O)cc1`, the “hERG current change (%, negative = inhibition) at 10uM” value came to 1.65%.

Regarding `O=C(Nc1ccc2ccccc2c1)Nc1ccc2snnc2c1`, the “hERG current change (%, negative = inhibition) at 10uM” value turned out to be 8.76%.

Take `O=C(O)/C=C\C(=O)Nc1ccc(Oc2ccc(Br)cc2)cc1`: the “hERG current change (%, negative = inhibition) at 10uM” value came to 11.4%.

Regarding `Cc1noc(C(=O)NC2CCCCC2)c1Cl`, the “hERG current change (%, negative = inhibition) at 10uM” value is reported as 2.01%.

`COc1ccc(OCCC(=O)OCC(=O)NCc2ccco2)cc1`: the “hERG current change (%, negative = inhibition) at 10uM” value was 4.99%.

As for `C=CCn1c(=O)c(C(=O)Nc2cc(C)ccn2)c(O)c2ccccc21`, the “hERG current change (%, negative = inhibition) at 10uM” value is given as 21.3%.

`CC(c1n[nH]c(=S)n1-c1ccc(F)cc1)N1CCCCC1` (stereo not shown): the “hERG current change (%, negative = inhibition) at 10uM” value came to 15.2%.

Consider `COc1ccc(CNc2nc3ccccc3n2C(C)C)cc1`, for which the “hERG current change (%, negative = inhibition) at 10uM” value is recorded as -18.7%.

As for `CC1=C(C)C(OCCBr)N(c2cc(O)c(Cl)cc2F)C1=O` (stereo not shown), the “hERG current change (%, negative = inhibition) at 10uM” value is 4.66%.

Take `CN(C)S(=O)(=O)c1ccc(C(=O)NNC(=O)C2COc3ccccc3O2)cc1` (stereo not shown): the “hERG current change (%, negative = inhibition) at 10uM” value is -6.84%.

For `CCn1c(=O)c(C(=O)Nc2ccccc2C)c(O)c2ccccc21`, the “hERG current change (%, negative = inhibition) at 10uM” value is recorded as 3.53%.

For the molecule `NC(=O)c1ccc(/C=N/O)[n+](Cc2ccccc2)c1.[Br-]`, the “hERG current change (%, negative = inhibition) at 10uM” value stood at 9.69%.

As to `O=C(COC(=O)C1=COCCO1)NC1CCCCC1`, the “hERG current change (%, negative = inhibition) at 10uM” value was 11.5%.

On to `O=C(O)c1ccccc1-c1ccccc1C(=O)NNc1ccc([N+](=O)[O-])cc1`, for which the “hERG current change (%, negative = inhibition) at 10uM” value is listed as -0.0622%.

As to `COCCNC(=O)CN1C(=O)COc2ccc(Cl)cc21`, the “hERG current change (%, negative = inhibition) at 10uM” value came to 21.8%.

(Values after article PMC4336329 (PLoS ONE, 2015).)
